The text below walks through data of PMC4336329 (PLoS ONE, 2015).

The whole screen tested about 310,000 compounds, of which about 2,200 (0.71%) showed an effect of 50% or more. The effect is printed as a negative number. Some of the results follow.

In the assay the target is human ether-à-go-go-related gene (hERG) potassium channel (human, UniProt Q12809). Kind of assay: primary screen, population patch clamp on CHO cells stably expressing hERG.
Chain of human ether-à-go-go-related gene (hERG) potassium channel (Q12809 whole entry, looked up): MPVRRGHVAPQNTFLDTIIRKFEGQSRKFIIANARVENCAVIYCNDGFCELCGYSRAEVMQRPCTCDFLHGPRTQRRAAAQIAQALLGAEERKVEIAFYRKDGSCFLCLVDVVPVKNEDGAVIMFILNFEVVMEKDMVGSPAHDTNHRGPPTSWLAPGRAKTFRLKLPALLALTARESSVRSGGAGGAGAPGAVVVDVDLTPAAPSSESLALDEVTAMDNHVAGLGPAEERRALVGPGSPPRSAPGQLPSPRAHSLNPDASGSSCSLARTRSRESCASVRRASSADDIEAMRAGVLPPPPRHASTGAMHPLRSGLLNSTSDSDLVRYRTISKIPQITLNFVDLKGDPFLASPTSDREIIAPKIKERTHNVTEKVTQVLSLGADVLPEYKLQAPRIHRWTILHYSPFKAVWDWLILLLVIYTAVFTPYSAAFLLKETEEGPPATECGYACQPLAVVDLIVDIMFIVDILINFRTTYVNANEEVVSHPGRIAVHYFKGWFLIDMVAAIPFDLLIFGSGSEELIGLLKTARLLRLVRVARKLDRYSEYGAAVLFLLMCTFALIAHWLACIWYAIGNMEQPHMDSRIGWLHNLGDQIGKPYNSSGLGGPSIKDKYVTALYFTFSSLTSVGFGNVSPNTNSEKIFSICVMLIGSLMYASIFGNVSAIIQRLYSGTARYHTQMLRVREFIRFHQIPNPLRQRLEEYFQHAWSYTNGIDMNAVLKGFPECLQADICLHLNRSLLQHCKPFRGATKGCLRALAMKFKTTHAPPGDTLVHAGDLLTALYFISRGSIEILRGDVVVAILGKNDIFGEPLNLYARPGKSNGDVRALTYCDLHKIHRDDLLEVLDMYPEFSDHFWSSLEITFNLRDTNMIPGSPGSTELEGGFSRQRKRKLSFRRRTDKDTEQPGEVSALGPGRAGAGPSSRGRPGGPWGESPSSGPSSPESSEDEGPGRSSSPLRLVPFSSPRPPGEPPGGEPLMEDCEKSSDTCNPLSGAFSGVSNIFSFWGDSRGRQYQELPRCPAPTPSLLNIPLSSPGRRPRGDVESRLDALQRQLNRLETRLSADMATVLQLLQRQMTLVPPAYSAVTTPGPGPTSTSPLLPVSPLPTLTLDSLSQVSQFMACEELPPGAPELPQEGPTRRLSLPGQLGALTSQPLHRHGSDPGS
Take `CN(CC(=O)NCc1ccc(F)cc1)S(=O)(=O)c1cccc2nsnc12`: the “hERG current change (%, negative = inhibition) at 1uM” value is listed as -7.83%.
`CCOC(=O)c1c(C)[nH]c(C=C2C(=O)CCCC2=O)c1O`: the “hERG current change (%, negative = inhibition) at 1uM” value was 3.9%.
In the case of `COc1ccc(NC(=O)CSc2nnnn2-c2ccccc2OC)c(OC)c1`, the “hERG current change (%, negative = inhibition) at 1uM” value was 0.645%.
To `CCOC(=O)N1CCN(C(=O)c2cnn3ccccc23)CC1` belongs 8.16%; to `COc1ccccc1NS(=O)(=O)c1ccc2oc(=S)[nH]c2c1`, -3.61%.
For `CC(C)c1ccc(-c2cc(C(=O)N3CCOCC3)c3cc(Br)ccc3n2)cc1`, the “hERG current change (%, negative = inhibition) at 1uM” value turned out to be 1.41%.
`CC(C)OC(=O)CSc1nnc(-c2cnccn2)n1-c1ccccc1`: the “hERG current change (%, negative = inhibition) at 1uM” value was determined as 13.9%.
In the case of `COc1ccc(N=N/C(C(C)=O)=C(/C)O)cc1`, the “hERG current change (%, negative = inhibition) at 1uM” value is on record as 9.11%.
To `CC(C)[C@H](NC(=O)[C@@H]1Cc2ccccc2CN1)C(=O)Nc1ccc2c(c1)OCO2` belongs 7.24%; to `CN(CC(=O)Nc1ccc(N2CCOCC2)cc1)C(=O)C1CCCC1`, 19.2%.
To `CCCOc1cccc(-c2cc(C(=O)NNC(=S)NCC)c3ccccc3n2)c1` belongs 4.3%; to `O=C1NC(=O)N(CCC2=CCCCC2)C(=O)/C1=C\c1cccs1`, 10.3%; to `Cc1c(C(=O)NN)nc2ccccn12`, 5.61%.
To `Cl.O=C1CN=C(Nc2ccccc2)N1Cc1cccs1` belongs 7.82%; to `Cc1ccc(OCCOCCN2CCN(C)CC2)c([N+](=O)[O-])c1`, 1.29%.
Take `Cc1cc(NC(=O)CSc2nc3c([nH]c4ccccc43)c(=O)n2-c2ccccc2F)no1`: the “hERG current change (%, negative = inhibition) at 1uM” value is reported as 11.7%.
Regarding `Cc1cc(C)n2nc(C(=O)N/N=C/c3cccs3)nc2n1`, the “hERG current change (%, negative = inhibition) at 1uM” value worked out at 8.38%.
To `CCC1CCCCN1C(=O)Cn1c(C(=O)OC)cc2sc(Cl)cc21` (stereo not drawn) belongs 12%; to `Cc1ccccc1CN(C)CC(=O)Nc1ccccc1-c1ccccc1`, -9.53%.
To `O=C(CN1C(=O)NC2(CCCc3ccccc32)C1=O)NCC(F)(F)F` (stereo not drawn) belongs 15.5%; to `O=C(Nc1cc(Cl)ccc1Cl)C1CCCO1` (stereo not drawn), 9.74%.
As to `CC1Cc2nc(SCC(=O)Nc3nccs3)n(C)c(=O)c2S1` (stereo not drawn), the “hERG current change (%, negative = inhibition) at 1uM” value was found to be 10.5%.
On to `COC(=O)c1ccc(N2NC(=O)/C(=C/c3cc(OC)c(O)c(OC)c3)C2=O)cc1`, for which the “hERG current change (%, negative = inhibition) at 1uM” value was determined as 5.64%.
Under `Cc1onc(-c2ccccc2)c1-c1csc(N/N=C/c2ccccc2Cl)n1` stands 9.41%; under `N#Cc1ccc(C(=O)Nc2cccc(NC(=O)c3ccco3)c2)c(F)c1`, 3.1%; under `Cc1cc(C)c(S(=O)(=O)N2CCN(C(=O)c3cc4ccccc4oc3=O)CC2)c(C)c1`, -0.0534%.
Regarding `CCCn1ncc(CN2CCC(CO)(Cc3ccc(OC)cc3)CC2)c1C`, the “hERG current change (%, negative = inhibition) at 1uM” value is listed as -14.7%.
To `Cc1ccc(CNc2ncnc3c2cnn3-c2ccccc2)cc1` belongs 7.4%.
Under `Cc1cc(C)nc(NS(=O)(=O)c2ccc(Br)cc2)n1` stands 21.2%; under `CC(C)NC(=O)CCCOc1ccc(Cl)cc1Cl`, -1.26%; under `Cc1cccc(NC(=O)CSCC(=O)Nc2nnc(C3CC3)s2)c1`, 8.77%.
Under `Cc1c(Cl)cccc1NC(=O)N1CCN(C(=O)c2ccco2)CC1` stands 15.5%; under `O=C(c1ccccc1)c1ccc(Sc2ccc([N+](=O)[O-])cc2)cc1`, 7.89%.
`CC(C)CCNc1nc(-c2ccco2)c2c(c1C#N)CCCC2`: the “hERG current change (%, negative = inhibition) at 1uM” value is recorded as 14.4%.
Under `Cc1ccc(S(=O)(=O)N(CC(=O)N2CCOCC2)c2ccccc2F)cc1` stands 10.3%; under `O=C(Nc1ccc2c(c1)nc1n2CCN(Cc2ccccc2)C1)c1cccs1`, -9.79%; under `O=C(c1cccc([N+](=O)[O-])c1)N1CCN(Cc2ccccc2)CC1`, 8.33%.
To `COc1ccc(/C=C/C(=O)c2sc(-c3ccccc3)nc2C)cc1` belongs 0.695%; to `COc1cc(-c2ccc3oc(-c4ccsc4)c(C#CC4(O)CCCCC4)c3c2)cc(OC)c1OC`, 13.2%; to `CC12CCC(=O)N1C(C(=O)Nc1cccc(F)c1)CS2` (stereo not drawn), 5.02%.
On to `COc1cc(OC)nc(NC(=O)NS(=O)(=O)c2ccc(F)cc2)n1`, for which the “hERG current change (%, negative = inhibition) at 1uM” value worked out at 0.362%.
To `COc1cc2c(cc1NC(=O)CC1SC(N3CCCC3)=NC1=O)oc1ccccc12` (stereo not drawn) belongs 6.04%; to `CCOC(=O)c1c(C)nc2c(c1-c1ccc(OC)c(OC)c1)C(=O)c1ccccc1-2`, -4.73%.
To `CCCCN(C(=O)CSc1nnnn1-c1ccccc1OC)C1CCS(=O)(=O)C1` (stereo not drawn) belongs 6.19%; to `N#CC1=C(N)OC2=C(CC/C2=C\c2ccc(F)cc2)C1c1ccc(F)cc1` (stereo not drawn), 5.51%; to `COc1ccc(S(=O)(=O)N2CCOCC2)cc1NC(=O)CN1CCCC1`, 16.2%.
To `Oc1ccccc1N=Cc1ccc[nH]1` belongs 5.56%.
On to `COc1ccc(-c2noc(CCC(=O)NCc3cccnc3)n2)cc1`, for which the “hERG current change (%, negative = inhibition) at 1uM” value is on record as 8.3%.
To `O=c1c(Cc2c(F)cccc2Cl)c(O)ccn1C1CC1` belongs 1.69%; to `COC(=O)CN(C(=S)Nc1ccc(Cl)cc1)C1CC(=O)N(c2ccc(OC)cc2)C1=O` (stereo not drawn), 5.34%; to `CCN(CC)S(=O)(=O)c1ccc2nc(COC(=O)c3n[nH]c4ccccc34)[nH]c2c1`, 11.4%.
Under `COc1ccc(NC(=S)NCCC(c2ccccc2)c2ccccc2)c(OC)c1` stands 2.74%.
To `Cc1ccc(Cn2c(CCCO)nc3ccccc32)cc1` belongs 7.83%; to `CCN(CC(=O)Nc1ccc2c(c1)OCCO2)C(=O)c1ccc(C)c(S(=O)(=O)N2CCOCC2)c1`, 16.8%; to `Oc1ccccc1C1=NN(c2ccccc2)C(c2ccccc2)C1` (stereo not drawn), 8.11%.
In the case of `COc1cc(OC)cc(C(=O)Nn2cc(C(=O)N3CCN(C)CC3)c3ccccc3c2=O)c1`, the “hERG current change (%, negative = inhibition) at 1uM” value worked out at 5.06%.
To `CC(C)(C)NC(=O)C(c1ccncc1)N(Cc1cccs1)C(=O)c1csnn1` (stereo not drawn) belongs 1.82%.
Under `Cc1nn(Cc2ccc(C(=O)N3N=C(C(F)F)CC3(O)C(F)F)cc2)c(C)c1[N+](=O)[O-]` (stereo not drawn) stands -27.7%.
To `CCOC(=O)c1c(C)n(Cc2ccco2)c2c1cc(O)c1ccccc12` belongs 2.59%.
Take `CN(C)CC(c1ccccc1)c1ccccc1.Cl`: the “hERG current change (%, negative = inhibition) at 1uM” value is reported as 8.57%.
To `CN(C(=O)c1cc(S(=O)(=O)N2CCCCC2)c[nH]1)C1CCCCC1` belongs 9.71%.
With `CCC(=O)NN1CCN(c2ccncc2S(=O)(=O)N2CCCCC2)CC1`, the “hERG current change (%, negative = inhibition) at 1uM” value is on record as 12.7%.
`O=C(CSc1nccn(-c2ccc(Br)cc2)c1=O)NCc1ccccc1`: the “hERG current change (%, negative = inhibition) at 1uM” value turned out to be 10.6%.
Under `CCC(=O)Nc1ccc2c(c1)nc1n2CCN(C2CCCCC2)C1` stands 2.53%; under `Cc1ccccc1-n1c(-c2ccc(Br)o2)n[nH]c1=S`, 12.8%; under `CCOC(=O)C1=C(c2ccccc2)NC(=O)NC1c1ccc(OC)c(OC)c1` (stereo not drawn), 18.6%.
To `CCc1ccc(NC(=O)NCc2ccc3c(c2)OCO3)cc1` belongs 9.52%; to `COc1cc(NS(=O)(=O)c2ccc(NC(=O)/C=C/C(=O)O)cc2)nc(OC)n1`, 5.24%.
Turning to `COc1ccc(N2CCN(C(CNS(=O)(=O)c3ccccc3)c3ccccc3)CC2)cc1` (stereo not drawn), the “hERG current change (%, negative = inhibition) at 1uM” value was found to be 5.21%.
Under `Cc1ccccc1N1C(=O)CC(=O)N(c2ccccc2C)C1=O` stands 12%; under `O=C(O)COc1ccccc1/C=C1\SC(=Nc2ccc(F)cc2)N(c2ccc(F)cc2)C1=O`, 1.58%; under `O=C(Nc1ccccc1C(=O)O)c1cccc(NC(=O)c2ccccc2Br)c1`, 6.41%.
In the case of `Cc1nn(-c2ccccc2)c(C)c1CN(C)C(=O)c1ccc(S(=O)(=O)NCc2ccco2)cc1`, the “hERG current change (%, negative = inhibition) at 1uM” value is on record as 7.15%.
To `Cc1ccc(OCC(=O)N/N=C/c2cccn2C)cc1` belongs 7%.
Turning to `O=C(CCC(=O)N1CCCC1)Nc1nnc(C(F)(F)F)s1`, the “hERG current change (%, negative = inhibition) at 1uM” value is on record as 6.08%.
Under `COc1ccc2c(CC(=O)NCCN3C(=O)S/C(=C\c4cccnc4)C3=O)coc2c1` stands 13.3%.
To `COC(=O)c1ccc(NC(=O)CSc2nnc(COc3ccc4c(c3)CCCC4)o2)cc1` belongs 5.55%; to `CC1C(=O)N2CCCc3cc(NC(=O)c4ccccc4F)cc1c32` (stereo not drawn), 3.99%; to `O=C(COC(=O)COc1cccc(C(F)(F)F)c1)NC(=O)NC1CCCCC1`, -4.65%.
To `COc1ccc(NC(=O)CCCN2C(=O)/C(=C\c3ccco3)SC2=S)cc1` belongs 14.9%.
Turning to `COc1ccc(C(C(=O)NC(C)(C)C)N(C(=O)CCC(=O)Nc2cc(C)on2)c2c(C)cccc2C)cc1` (stereo not drawn), the “hERG current change (%, negative = inhibition) at 1uM” value turned out to be 10.2%.
With `CN(Cc1ccco1)S(=O)(=O)c1nnc(NC(=O)c2cccc(Cl)c2)s1`, the “hERG current change (%, negative = inhibition) at 1uM” value is on record as 14%.
As to `C=C(C)C(=O)OC1(C(F)(F)F)Oc2cc(C)ccc2NC1=O` (stereo not drawn), the “hERG current change (%, negative = inhibition) at 1uM” value is 9.34%.
Under `O=C(Nc1ncc(Cc2ccccc2)s1)c1cccs1` stands 8.34%; under `O=C(CSc1nc2c(cnn2-c2ccc(F)cc2)c(=O)[nH]1)N1CCCCCC1`, 11%; under `O=C(CN1CCN(Cc2ccccc2Cl)CC1)N/N=C/c1ccccn1`, 11.8%.
To `CC(C)CN(C(=O)COc1ccc([N+](=O)[O-])cc1)c1c(N)n(CC(C)C)c(=O)[nH]c1=O` belongs -3.6%.
